Assay [1] is described as follows: qHTS drug screen for cell cycle checkpoint inhibitors in PARPi-resistant BRCA-mutant ovarian cancer cell lines. (AID 1963452). As to conditions: PEO1/OlaR viability, CellTiter-Glo luminescence, 96 h. The method, boiled down:
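PEO1, PEO4 and PEO1/OlaR ovarian cancer cells, 600 per well, exposed 96 h at 37C to a dilution series. Viability read by CellTiter-Glo luminescence, normalized to DMSO and empty wells; activity summarized as Z-AUC.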

Assay [2] is described as follows: qHTS for identification of novel therapeutic agents for treatment of microphthalmiaassociated transcription factor (MiT) renal cell carcinoma (RCC) (AID 1963991). As to conditions: CellTiter-Glo, 48 h; for z-score: stronger effect = lower value. In a few lines: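 Viability of three TFE3-fusion renal carcinoma lines measured by CellTiter-Glo after 48 h treatment with each of 1912 compounds at 11 concentrations. Responses scaled between DMSO (100%) and empty wells (0%) before curve fitting.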
Background: In qHTS, concentration-response curves come from the screen itself.

[3] abbreviates: measured here: PEO1 parental viability.
[4] abbreviates: TFE3-RCC UOK109 viability, measured here: UOK109 Z-AUC.
Where [5] appears, read: TFE3-RCC viability, measured here: UOK124 Z-AUC.
Where [6] appears, read: TFE3-RCC viability, measured here: UOK124 cell viability.
The mark [7] stands for this setting: TFE3-RCC viability, measured here: UOK145 Z-AUC.
Where [8] appears, read: TFE3-RCC viability, measured here: UOK145 cell viability.

Some of the results follow. Shown are side measurements of this screen, not its main read-out; they come without a call. For some of these results: Most of these compounds were active or inconclusive in the main read-out, so they are no random draw. Words in brackets tell the shape of the fitted curve; partial curves, single points and poor fits give uncertain potencies.
Tags describe the fitted curve by direction and shape.

Take `C[C@](O)(COc1ccc(C#N)cc1)C(=O)Nc1ccc(C#N)c(C(F)(F)F)c1`: the AC50 (usually the midpoint of the concentration-response curve, whichever way the signal moves) is 17400 nM [falling, single point] in assay [1] (setting [3]); 24500 nM [falling, single point] in assay [1] (measured here: PEO4 viability); 33200 nM [falling, partial curve, poor fit] in assay [2] (setting [6]). The z-score amounted to 0.534 in assay [2] (setting [4]), 0.239 in assay [2] (setting [5]) and 0.238 in assay [2] (setting [7]).
Consider `Cn1cc(C2=C(c3cn(C4CCN(Cc5ccccn5)CC4)c4ccccc34)C(=O)NC2=O)c2ccccc21`, for which the AC50 in assay [1] (setting [3]) was 30900 nM [falling, single point]; in assay [1] (measured here: PEO4 viability), 6160 nM [falling, partial curve]; in assay [2] (setting [6]), 5260 nM [falling, full curve]; in assay [2] (setting [8]), 11800 nM [falling, full curve]. The z-score in assay [2] (setting [4]) was 0.376; in assay [2] (setting [5]), -0.402; in assay [2] (setting [7]) it was 0.385.
With `COc1ccc(N(C(=O)Oc2c(C)cccc2C)c2ccnc(Nc3ccc(N4CCN(C)CC4)cc3)n2)c(OC)c1`, the concentration at half-maximal activity (AC50) is 3470 nM [falling, single point] in assay [1] (setting [3]); 1660 nM [falling, partial curve, poor fit] in assay [2] (setting [6]); 3720 nM [falling, partial curve] in assay [2] (setting [8]). Also, the z-score was -0.223 in assay [2] (setting [4]), -0.229 in assay [2] (setting [5]) and -0.62 in assay [2] (setting [7]).
Take `CC(=O)N(C)c1cccc(-c2ccnc3c(C(=O)c4cccs4)cnn23)c1`: the z-score in assay [2] (setting [4]) was determined as 1.62; in assay [2] (setting [5]), 0.631; in assay [2] (setting [7]) it was 1.61.
Turning to `COc1cc([C@@H]2c3cc4c(cc3[C@@H](O)C3COC(=O)C32)OCO4)cc(OC)c1O` (some centres not stated), the AC50 was 616 nM [falling, full curve] in assay [1] (setting [3]); 110 nM [falling, full curve] in assay [1] (measured here: PEO4 viability); 18.7 nM [falling, full curve] in assay [2] (setting [6]); 23.5 nM [falling, full curve] in assay [2] (setting [8]).
For `COC1=CC(C)=C[C@@H](C)[C@@H](O)[C@@H](C)CC(C)=CC=C[C@H](OC)[C@H]([C@@H](C)[C@@H](O)[C@H](C)[C@@]2(O)C[C@@H](O)[C@H](C)[C@@H](C(C)C)O2)OC1=O`, the AC50 was 23500 nM [falling, partial curve, poor fit] in assay [2] (setting [6]) and 7.43 nM [falling, full curve] in assay [2] (setting [8]).
With `C[C@]12CC[C@H]3[C@@H](CCC4=CC(=O)CC[C@@]43C)[C@H]1CC[C@H]2O`, the z-score in assay [2] (setting [4]) is -0.00683; in assay [2] (setting [5]), 0.0742; in assay [2] (setting [7]), -0.167.
As to `O=C(N[C@@H](COc1ccc2[nH]c(=O)[nH]c2c1)c1ccccc1)c1cccn(Cc2ccc(F)c(F)c2)c1=O`, the AC50 was 12300 nM [falling, partial curve, poor fit] in assay [1] (setting [3]); 12300 nM [falling, partial curve] in assay [1] (measured here: PEO4 viability); 33200 nM [falling, single point] in assay [2] (setting [6]); 26400 nM [falling, single point] in assay [2] (setting [8]). Besides, the z-score in assay [2] (setting [4]) was 0.431; in assay [2] (setting [5]), -1.9; in assay [2] (setting [7]), -0.76.
In the case of `O=c1[nH]c2ccc(Cl)cc2c(N[C@@H]2CN3CCC2CC3)c1-c1nc2ccccc2[nH]1`, the half-maximal activity concentration (AC50) in assay [1] (setting [3]) was 155 nM [falling, full curve]; in assay [1] (measured here: PEO4 viability), 195 nM [falling, full curve]; in assay [2] (setting [6]) it was 332 nM [falling, full curve]; in assay [2] (setting [8]) it was 332 nM [falling, full curve].
Regarding `O=C(Nc1ccncc1)C(=O)c1cn(Cc2ccc(Cl)cc2)c2ccccc12`, the AC50 was 49 nM [falling, full curve] in assay [1] (setting [3]); 21.9 nM [falling, full curve] in assay [1] (measured here: PEO4 viability); 743 nM [falling, full curve] in assay [2] (setting [6]); 166 nM [falling, full curve] in assay [2] (setting [8]).
As for `N=c1c2c(-c3ccccc3)c(-c3ccccc3)n(Cc3ccccc3)c2ncn1C1CCC(O)CC1` (configuration not stated), the AC50 in assay [1] (setting [3]) is 15500 nM [falling, partial curve]; in assay [1] (measured here: PEO4 viability) it was 4360 nM [falling, partial curve]; in assay [2] (setting [6]), 23500 nM [falling, partial curve, poor fit]; in assay [2] (setting [8]), 332 nM [falling, full curve]. The z-score is -1.62 in assay [2] (setting [4]), -0.0707 in assay [2] (setting [5]) and -0.605 in assay [2] (setting [7]).
Regarding `CCN(CC)C(=O)c1ccc(C2=CC3(CCNCC3)Oc3cccc(O)c32)cc1`, in assay [1] (measured here: PEO4 viability), the AC50 is 15.5 nM [falling, full curve]. For the same compound, the z-score in assay [2] (setting [4]) came to 1.05; in assay [2] (setting [5]) it was 0.688; in assay [2] (setting [7]), 1.17.
For the compound `C[C@]12CCC(=O)C(O)=C1CC[C@@H]1[C@H]3CCC(=O)[C@@]3(C)CC[C@@H]12`, the z-score in assay [2] (setting [4]) was 0.553; in assay [2] (setting [5]), 0.741; in assay [2] (setting [7]), -2.5. Also, in assay [2] (setting [8]), the AC50 was 935 nM [falling, partial curve, poor fit].
With `CC(=O)Nc1ccc(OC[C@](C)(O)C(=O)Nc2ccc([N+](=O)[O-])c(C(F)(F)F)c2)cc1`, the z-score in assay [2] (setting [4]) is 0.83; in assay [2] (setting [5]), -0.0215; in assay [2] (setting [7]), -0.136.
As to `C[C@]12CC[C@H]3[C@@H](CCC4=CC(=O)CC[C@@]43C)[C@H]1CC[C@H]2OC(=O)CCC1CCCC1`, the z-score in assay [2] (setting [4]) is -0.189; in assay [2] (setting [5]), 0.833; in assay [2] (setting [7]), 0.303.

The record behind these values is PubChem BioAssay (NCATS).
